Six molecules from article PMC10239115 can be followed below.

Chains of the proteins cited; added tags and fusions are not shown.
UniProt O14543: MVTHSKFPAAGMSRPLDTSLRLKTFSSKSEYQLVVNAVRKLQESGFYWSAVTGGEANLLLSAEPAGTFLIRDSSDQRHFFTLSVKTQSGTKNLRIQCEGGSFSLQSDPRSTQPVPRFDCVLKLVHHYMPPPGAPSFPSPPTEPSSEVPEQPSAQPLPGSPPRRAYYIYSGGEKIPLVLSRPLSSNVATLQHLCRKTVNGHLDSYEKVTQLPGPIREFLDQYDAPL
UniProt P40763: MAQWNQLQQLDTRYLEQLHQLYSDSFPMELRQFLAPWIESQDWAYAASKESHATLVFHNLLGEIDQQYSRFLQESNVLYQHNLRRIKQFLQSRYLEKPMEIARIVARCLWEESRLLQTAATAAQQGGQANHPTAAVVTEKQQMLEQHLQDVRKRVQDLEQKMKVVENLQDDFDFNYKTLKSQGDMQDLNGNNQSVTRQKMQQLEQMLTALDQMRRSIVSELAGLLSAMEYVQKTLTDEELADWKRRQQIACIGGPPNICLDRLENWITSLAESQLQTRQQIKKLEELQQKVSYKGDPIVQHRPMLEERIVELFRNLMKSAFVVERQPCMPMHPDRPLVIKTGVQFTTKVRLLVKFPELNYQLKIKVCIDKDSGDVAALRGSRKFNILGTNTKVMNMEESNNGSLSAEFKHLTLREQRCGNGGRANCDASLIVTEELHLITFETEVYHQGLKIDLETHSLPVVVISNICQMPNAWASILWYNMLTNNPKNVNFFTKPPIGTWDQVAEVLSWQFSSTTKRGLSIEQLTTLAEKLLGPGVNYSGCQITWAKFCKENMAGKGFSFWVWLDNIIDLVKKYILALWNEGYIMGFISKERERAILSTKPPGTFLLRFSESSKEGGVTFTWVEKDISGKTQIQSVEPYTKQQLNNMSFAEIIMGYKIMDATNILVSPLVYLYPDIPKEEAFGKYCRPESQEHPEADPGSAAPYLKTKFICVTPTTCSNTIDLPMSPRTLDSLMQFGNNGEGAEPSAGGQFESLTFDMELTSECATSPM

Experiment [1] addresses T1, Flag-tagged Kremen2 (Kringle containing transmembrane protein 2) (UniProt Q8NCW0).
T1 sequence: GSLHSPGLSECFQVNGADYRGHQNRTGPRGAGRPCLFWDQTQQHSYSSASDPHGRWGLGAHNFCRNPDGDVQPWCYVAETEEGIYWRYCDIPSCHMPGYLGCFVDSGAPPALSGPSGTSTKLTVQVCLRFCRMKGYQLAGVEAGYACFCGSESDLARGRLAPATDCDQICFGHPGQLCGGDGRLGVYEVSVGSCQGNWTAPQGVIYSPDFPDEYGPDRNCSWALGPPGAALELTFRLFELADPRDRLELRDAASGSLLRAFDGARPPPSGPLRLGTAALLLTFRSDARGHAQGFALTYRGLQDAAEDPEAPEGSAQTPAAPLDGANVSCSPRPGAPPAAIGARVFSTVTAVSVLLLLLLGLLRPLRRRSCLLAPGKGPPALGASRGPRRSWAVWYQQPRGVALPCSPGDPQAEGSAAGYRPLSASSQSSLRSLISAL
Kind of experiment: co-IP; HEK293T transfected with Flag-Krm2; lysate in IP lysis buffer incubated with protein A/G magnetic beads and anti-Flag or normal IgG overnight at 4 °C; blots for EGFR, AKT, STAT3, SOCS3.

Experiment [2] addresses epidermal growth factor receptor (EGFR), endogenous in H1703 (human (endogenous in H1703)) (UniProt P00533). Briefly: co-IP; endogenous proteins in H1703 lysate; reciprocal IP with anti-EGFR or anti-SOCS3, protein A/G magnetic beads, overnight at 4 °C.
In experiment [3] the target is suppressor of cytokine signaling 3 (SOCS3), endogenous in H1703 (human (endogenous in H1703)) (UniProt O14543). Described as above.
For experiment [4], the target named is His-tagged SOCS3 (UniProt O14543). Kind of experiment: pull-down; HEK293T co-transfected with His-SOCS3 and Flag-Krm2; lysate (150 mM NaCl, 10 mM imidazole, 0.05% Triton-100, 0.02 M Tris-HCl pH 8.0) on Ni-NTA agarose beads 2 h at 4 °C; His-SOCS3 held, blot for Kremen2.

No constants are given. Whether binding was seen depends on the method and setting. In cells and extracts the contact can be indirect. Some results given as binding are weak or reduced against the parent protein; the word gives no strength. For part of these data: Tags and fused reporters may be left off the sequences shown.

Turning to “STAT3, endogenous in HEK293T (from UniProt P40763 1-770)”, in experiment [1], the binding entry is “no binding”.

Consider “suppressor of cytokine signaling 3 (SOCS3), endogenous in H1703 (from UniProt O14543 1-225)”, for which, in experiment [2], the binding result was “binds”. Consider “epidermal growth factor receptor (EGFR), endogenous in HEK293T (from UniProt P00533 25-1210)”, for which, in experiment [1], the binding entry is “no binding”. The same measure, in the same setting: the value for “suppressor of cytokine signaling 3 (SOCS3), endogenous in HEK293T (from UniProt O14543 1-225)” was “binds”. Consider “epidermal growth factor receptor (EGFR), endogenous in H1703 (from UniProt P00533 25-1210)”, for which, in experiment [3], the binding entry is “binds”.

B1: Flag-tagged Kremen2 (Kringle containing transmembrane protein 2) (receptor, UniProt Q8NCW0 26-462)
chain: T1 sequence
In the case of B1, in experiment [4], the binding entry is “binds”.
